# Reference: publication PMC4336329 (PLoS ONE, 2015)
# In all, about 310,000 compounds went through this assay and about 14,000 (4.5%) showed an effect of 50% or more. The effect is printed as a negative number. Some of the results follow.
# Molecular target: human ether-à-go-go-related gene (hERG) potassium channel (human, UniProt Q12809)
# Assay: primary screen, population patch clamp on CHO cells stably expressing hERG
# 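Also: peak tail current of the secondary pulse compared with the same well before compound.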
# Sequence of human ether-à-go-go-related gene (hERG) potassium channel (Q12809 whole entry, looked up): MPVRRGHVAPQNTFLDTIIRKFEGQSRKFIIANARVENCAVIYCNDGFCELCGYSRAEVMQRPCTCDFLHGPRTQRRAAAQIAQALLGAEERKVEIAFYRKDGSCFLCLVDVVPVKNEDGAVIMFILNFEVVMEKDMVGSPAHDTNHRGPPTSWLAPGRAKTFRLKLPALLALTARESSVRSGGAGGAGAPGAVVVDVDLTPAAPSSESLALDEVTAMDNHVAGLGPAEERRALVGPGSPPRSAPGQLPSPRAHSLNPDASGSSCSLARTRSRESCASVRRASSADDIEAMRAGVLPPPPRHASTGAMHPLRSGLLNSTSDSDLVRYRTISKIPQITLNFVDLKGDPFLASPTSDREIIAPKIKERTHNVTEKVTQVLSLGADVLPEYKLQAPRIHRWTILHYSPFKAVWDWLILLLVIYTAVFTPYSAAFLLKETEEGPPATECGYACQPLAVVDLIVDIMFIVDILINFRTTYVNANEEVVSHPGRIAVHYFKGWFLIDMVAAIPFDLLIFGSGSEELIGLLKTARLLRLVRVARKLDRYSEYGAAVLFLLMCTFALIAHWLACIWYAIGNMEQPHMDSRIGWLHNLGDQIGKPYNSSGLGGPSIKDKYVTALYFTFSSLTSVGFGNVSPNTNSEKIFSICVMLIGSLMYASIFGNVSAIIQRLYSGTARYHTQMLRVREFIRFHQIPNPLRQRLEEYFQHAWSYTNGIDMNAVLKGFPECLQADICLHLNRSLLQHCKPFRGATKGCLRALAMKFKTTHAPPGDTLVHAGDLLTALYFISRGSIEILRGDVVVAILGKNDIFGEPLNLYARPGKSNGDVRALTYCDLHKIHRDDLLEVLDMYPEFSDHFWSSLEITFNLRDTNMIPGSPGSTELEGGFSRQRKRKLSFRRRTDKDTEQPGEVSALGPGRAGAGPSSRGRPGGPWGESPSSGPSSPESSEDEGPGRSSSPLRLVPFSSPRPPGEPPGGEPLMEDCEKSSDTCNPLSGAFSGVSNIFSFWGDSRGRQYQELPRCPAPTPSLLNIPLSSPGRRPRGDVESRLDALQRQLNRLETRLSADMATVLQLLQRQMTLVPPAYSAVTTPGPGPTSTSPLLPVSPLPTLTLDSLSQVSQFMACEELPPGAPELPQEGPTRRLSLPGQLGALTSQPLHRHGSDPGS
row,SMILES,"hERG current change (%, negative = inhibition) at 10uM"
1,COc1cc(/C=N/NC(=O)COc2ccc(Cl)cc2)ccc1OS(=O)(=O)c1ccc(C)cc1,0.463%
2,Cc1cc(NC(=O)c2ccc3c(c2)C(=O)N(Cc2cccnc2)C3=O)no1,9.59%
3,COc1ccccc1CNC(=O)CSc1nc2c(oc3ccccc32)c(=O)n1CC1CCCO1 (stereo not drawn),-7.92%
4,O=C(N/N=C/c1ccc(Cl)c([N+](=O)[O-])c1)c1cc(-c2ccccc2)nc2ccccc12,17.1%
5,C/C(=N\NC(=O)CNC(=O)c1ccncc1)c1ccc(C)cc1,5.81%
6,CCOC(=O)C1=C(COC(=O)c2ccc3ccccc3c2O)NC(=O)NC1C (stereo not drawn),-32.4%
7,Cc1ccc2nc(-c3ccccn3)oc2c1,8.03%
8,COc1cccc(NCc2nnc(SCC(=O)N(C)C3CCS(=O)(=O)C3)n2C2CCCCC2)c1 (stereo not drawn),6.11%
9,O=C(Nc1ccnn1C1CCN(Cc2c(F)cccc2Cl)CC1)C1CCCC1,-32.1%
10,FC(F)(F)c1ccccc1NC(=S)N1CCN(c2ncccn2)CC1,9.67%
11,COc1cc(OC)cc(C(=O)OC(C)C(=O)NC2CCCc3ccccc32)c1 (stereo not drawn),5.94%
12,CCOC(=O)[C@@H]1[C@H]2COc3ccc(Br)cc3[C@@H]2N2C(=O)N(c3ccc(C(F)(F)F)cc3)C(=O)[C@]12C,20%
13,O=C(O)c1ccc(Cn2c(=S)[nH]c3cc(Cl)ccc3c2=O)cc1,16%
14,c1ccc(-n2c(SCC3CCCCO3)nnc2-c2cccs2)cc1 (stereo not drawn),-11%
15,Cc1ccc(Cn2cccc(NC(=O)NCc3ccccc3)c2=O)cc1,-6.27%
16,O=C(CSc1nnc2ccc(-c3cccnc3)nn12)Nc1ccc(F)cc1F,-64.9%
17,CCOC(=O)c1sc(-c2ccc(Cl)cc2Cl)nc1O,17.8%
18,CC(C)(C)NS(=O)(=O)c1cccc2nsnc12,19.9%
19,COc1cccc(-c2cc(C(=O)NCCCn3ccnc3)no2)c1,-10.1%
20,Cc1nc(-c2ccccc2)sc1C1(C)CC(c2ccc(C#N)cc2)=NO1 (stereo not drawn),-3.07%
21,CCCC(=O)Oc1ccc(N(C(=O)CCC)S(=O)(=O)c2cccs2)cc1,10.9%

row,SMILES,"hERG current change (%, negative = inhibition) at 10uM"
1,Cc1cc(-c2ccc(N3C(=O)CCC3=O)c(C)c2)ccc1N1C(=O)CCC1=O,10.1%
2,Cc1ccc(CC(CC(=O)O)C(=O)Nc2ccc(Cl)cc2)cc1 (stereo not drawn),3.33%
3,O=C(NCC1CCN(S(=O)(=O)c2ccccc2)CC1)Nc1ccc(F)cc1F,-4.47%
4,CCc1nnc(NS(=O)(=O)c2ccc(N/C=C\C(=O)c3ccc(F)cc3)cc2)s1,31.2%
5,CC(NC(=O)NC1CCCCC1)C(c1cccs1)N1CCN(Cc2ccccc2)CC1 (stereo not drawn),-56.7%
6,Cc1ccc(NC(=O)c2ccc(S(=O)(=O)C(F)F)cc2)c(C)c1,-19.7%
7,CCCn1c(=O)c(C(=O)N/N=C/c2ccccc2F)c(O)c2ccccc21,9.04%
8,COc1ccc(/C(O)=C2\C(=O)C(=O)N(CC3CCCO3)C2c2cc(OC)ccc2OC)cc1 (stereo not drawn),-4.68%
9,N#C/C(=C\c1ccc(OCc2ccc(C(=O)O)cc2)cc1)C(=O)N1CCOCC1,-8.02%
10,COc1ccc(C(=O)c2c(-c3ccc(OC)cc3)oc3ccccc23)cc1,4.22%
11,O=C(NC1CCCc2ccccc21)c1cc(F)cc(F)c1 (stereo not drawn),18.5%
12,Cc1ccc(CN2CN(S(=O)(=O)c3cccs3)c3nc4ccccc4nc32)cc1,-4.87%
13,COc1ccc2cc(S(=O)(=O)N3CCCCCC3)ccc2c1,-18.3%
14,Cc1ccc(C)c(NC(=O)CSc2nc3nc(-c4cccs4)cc(C(F)(F)F)c3c(=O)[nH]2)c1,-20%
15,COc1ccc(N2C(S)=C(C#N)C(=O)NC2c2ccco2)cc1 (stereo not drawn),5.69%
16,Cc1ccc(C)n1CCN1CCN(C(=O)CC#N)CC1,16.3%
17,Cc1c(/C=N/NC(=O)COc2ccccc2[N+](=O)[O-])c2ccccc2n1C,9.35%
18,COC(=O)c1ccc(CSc2n[nH]c(C)n2)o1,-0.248%
19,S=C(N/N=C/c1ccc(Cl)cc1)N1CCOCC1,-31.4%
20,CCOC(=O)c1ccc(CSc2ncn[nH]2)o1,16.7%
21,O=C1CC(c2ccccc2)=Nc2ccccc2N1Cc1ccccc1,-2.85%
